These are yes or no findings as the source states them, for the method shown. For part of these data: Binding seen in cells or lysates may run through a third protein. Some entries that bind do so weakly or less than the wild type.
Tests used:
[1] = target: Dsg1-GFP (GFP-FLAG Dsg1, full length) (human) (UniProt Q02413); test: co-IP; GFP immunoprecipitation with GFP-Trap beads from lysates of undifferentiated NHEKs expressing GFP, Dsg1-GFP or Dsg2-GFP, with or without ectopic Tctex constructs (1% Triton, 145 mM NaCl, 10 mM Tris-HCl pH 7.4), 2 h at 4 °C; immunoblot
[2] = target: Dsg2-GFP (LZRS-GFP-FLAG Dsg2) (UniProt Q14126); test: as above
[3] = target: endogenous desmoglein 1 of differentiated keratinocytes (human (endogenous in NHEK)) (UniProt Q02413); test: proximity ligation; Duolink in situ PLA in differentiated NHEKs with primary antibodies against Dsg1 or E-cadherin and Tctex-1; with or without Dsg1 or Tctex-1 knockdown
[4] = target: Dsg1-FL-Flag, ectopic Dsg1 full length (human) (UniProt Q02413); test: proximity ligation; Duolink in situ PLA in undifferentiated NHEKs with ectopic Dsg1-FL; primary antibodies against Dsg1, E-cadherin or Dsg2 and Tctex-1; with or without Tctex-1 knockdown
[5] = target: endogenous desmoglein 2 of keratinocytes (human (endogenous in NHEK)) (UniProt Q14126); test: as above
[6] = target: Dsg1-FL-Flag, ectopic Dsg1 full length (human) (UniProt Q02413); test: proximity ligation; Duolink in situ PLA in undifferentiated NHEKs retrovirally transduced with GFP, Dsg1-FL-Flag, Dsg1-909-Flag or Dsg1-ICS-Flag; primary antibodies against Flag and Tctex-1
[7] = target: Dsg1-FL-Flag, ectopic Dsg1 full length (human) (UniProt Q02413); test: co-IP; ectopic FLAG-tagged Dsg1 constructs immunoprecipitated from NHEK lysates with M2-agarose beads (1% Triton, 145 mM NaCl, 10 mM Tris-HCl pH 7.4), 2 h at 4 °C; blot probed for Tctex-1; cells expressing only GFP as control
[8] = target: Dsg1-Δ569, Flag-tagged Dsg1 construct containing only the cytoplasmic domains (human) (UniProt Q02413); test: as above
[9] = target: Sos-Dsg1(909–1049) (human) (UniProt Q02413); test: two-hybrid; CytoTrap system in Cdc25H yeast; Sos-fused Dsg bait and pMyr prey (HeLa cDNA library in the screen, specific pMyr constructs for confirmation); growth on galactose at 37 °C indicates an interaction
[10] = target: Sos-Dsg1(cyto), desmoglein 1 cytoplasmic tail fused to Sos (human) (UniProt Q02413); test: as above

Amino acid sequences for entries named in this document (tags omitted). A change or cut given only in a name is not applied to a line headed by its entry. Chains listed by the source or under a name are the forms on record and can include a tag or linker. Residues count along the entry.
UniProt Q02413: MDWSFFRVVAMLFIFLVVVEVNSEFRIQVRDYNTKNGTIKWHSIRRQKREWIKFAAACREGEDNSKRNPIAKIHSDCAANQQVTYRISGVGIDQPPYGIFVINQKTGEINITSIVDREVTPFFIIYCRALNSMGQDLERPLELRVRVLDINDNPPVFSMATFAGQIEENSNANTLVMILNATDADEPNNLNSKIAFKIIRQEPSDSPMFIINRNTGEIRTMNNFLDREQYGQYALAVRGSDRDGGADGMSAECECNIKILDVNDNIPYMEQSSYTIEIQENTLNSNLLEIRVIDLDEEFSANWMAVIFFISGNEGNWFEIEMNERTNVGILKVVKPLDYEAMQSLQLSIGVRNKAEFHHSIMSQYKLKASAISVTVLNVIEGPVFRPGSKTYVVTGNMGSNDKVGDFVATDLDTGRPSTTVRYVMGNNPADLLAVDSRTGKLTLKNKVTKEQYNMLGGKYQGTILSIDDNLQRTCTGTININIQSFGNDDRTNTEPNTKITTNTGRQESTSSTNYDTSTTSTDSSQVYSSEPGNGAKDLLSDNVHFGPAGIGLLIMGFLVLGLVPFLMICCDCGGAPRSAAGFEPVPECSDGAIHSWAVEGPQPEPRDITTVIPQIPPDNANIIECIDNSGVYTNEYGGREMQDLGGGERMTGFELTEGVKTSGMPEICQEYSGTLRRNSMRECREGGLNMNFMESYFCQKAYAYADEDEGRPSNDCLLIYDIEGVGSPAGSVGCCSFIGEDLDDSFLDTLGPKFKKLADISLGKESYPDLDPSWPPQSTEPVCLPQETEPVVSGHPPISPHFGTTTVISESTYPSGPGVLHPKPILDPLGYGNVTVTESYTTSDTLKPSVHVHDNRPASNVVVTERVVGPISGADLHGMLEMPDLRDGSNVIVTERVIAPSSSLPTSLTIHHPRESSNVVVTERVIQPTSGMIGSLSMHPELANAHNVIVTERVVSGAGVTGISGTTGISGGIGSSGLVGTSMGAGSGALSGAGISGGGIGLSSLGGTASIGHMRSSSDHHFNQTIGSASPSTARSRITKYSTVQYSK
Dsg1-FL-Flag, ectopic Dsg1 full length: residues 50-1049 of Q02413
Sos-Dsg1(cyto), desmoglein 1 cytoplasmic tail fused to Sos: residues 570-1049 of Q02413
Sos-Dsg1(909–1049): residues 909-1049 of Q02413
UniProt Q14126, residues 50-1118: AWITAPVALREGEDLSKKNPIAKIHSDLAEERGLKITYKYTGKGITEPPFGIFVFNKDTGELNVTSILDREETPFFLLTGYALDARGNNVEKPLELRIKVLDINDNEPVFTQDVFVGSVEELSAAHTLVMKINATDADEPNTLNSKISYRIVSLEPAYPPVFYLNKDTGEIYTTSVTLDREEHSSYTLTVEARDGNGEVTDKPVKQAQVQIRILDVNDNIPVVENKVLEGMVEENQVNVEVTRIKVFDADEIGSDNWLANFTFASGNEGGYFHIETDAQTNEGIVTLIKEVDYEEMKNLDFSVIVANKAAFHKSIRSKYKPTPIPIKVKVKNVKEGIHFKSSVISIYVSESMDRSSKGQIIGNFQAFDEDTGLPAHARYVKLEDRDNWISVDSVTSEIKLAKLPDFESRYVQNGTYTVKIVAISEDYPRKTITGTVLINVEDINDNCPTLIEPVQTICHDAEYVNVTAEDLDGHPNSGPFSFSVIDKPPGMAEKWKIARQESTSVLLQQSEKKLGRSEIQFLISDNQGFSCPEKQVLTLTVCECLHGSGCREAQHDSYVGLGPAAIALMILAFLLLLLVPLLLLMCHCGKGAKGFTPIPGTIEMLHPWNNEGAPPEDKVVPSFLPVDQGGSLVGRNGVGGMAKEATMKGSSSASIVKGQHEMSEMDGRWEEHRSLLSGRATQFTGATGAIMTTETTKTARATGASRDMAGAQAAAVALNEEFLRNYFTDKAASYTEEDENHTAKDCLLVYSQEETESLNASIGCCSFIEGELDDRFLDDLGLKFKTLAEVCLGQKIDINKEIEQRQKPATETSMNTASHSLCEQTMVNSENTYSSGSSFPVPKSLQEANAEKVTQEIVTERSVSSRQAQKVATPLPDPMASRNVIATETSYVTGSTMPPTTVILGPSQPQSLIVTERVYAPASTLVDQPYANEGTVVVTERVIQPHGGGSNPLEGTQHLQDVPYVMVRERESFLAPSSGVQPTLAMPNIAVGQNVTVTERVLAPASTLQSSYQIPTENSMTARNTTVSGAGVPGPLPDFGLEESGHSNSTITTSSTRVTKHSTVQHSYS
UniProt Q14247: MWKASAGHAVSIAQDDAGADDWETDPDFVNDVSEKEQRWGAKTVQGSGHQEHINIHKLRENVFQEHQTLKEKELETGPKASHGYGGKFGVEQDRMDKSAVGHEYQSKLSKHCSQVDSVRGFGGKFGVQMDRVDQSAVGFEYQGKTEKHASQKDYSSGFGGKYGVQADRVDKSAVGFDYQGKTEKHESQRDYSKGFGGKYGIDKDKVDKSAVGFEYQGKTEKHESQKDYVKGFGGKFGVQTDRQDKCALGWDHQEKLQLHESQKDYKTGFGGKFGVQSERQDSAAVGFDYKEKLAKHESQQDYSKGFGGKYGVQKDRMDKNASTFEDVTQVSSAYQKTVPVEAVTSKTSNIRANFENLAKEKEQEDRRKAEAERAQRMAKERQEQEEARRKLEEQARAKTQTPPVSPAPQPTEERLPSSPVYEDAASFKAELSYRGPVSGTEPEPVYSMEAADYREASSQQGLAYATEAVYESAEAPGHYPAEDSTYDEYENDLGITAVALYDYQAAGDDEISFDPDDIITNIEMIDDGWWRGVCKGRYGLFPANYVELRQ
UniProt P63172: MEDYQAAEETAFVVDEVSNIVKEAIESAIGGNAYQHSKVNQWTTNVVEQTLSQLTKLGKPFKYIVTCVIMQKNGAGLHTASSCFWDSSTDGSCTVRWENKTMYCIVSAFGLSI

“endogenous cortactin of keratinocytes (from UniProt Q14247 1-550)” was tested, and the binding [1] was “binds” and the binding [2] was “no binding”.
With “Tctex-t94e-Flag, Tctex-1 phosphomimetic mutant T94E (from UniProt P63172 1-113)” the binding [1] was “binds”.
For “Tctex-wt-Flag, ectopic wild type Tctex-1 (from UniProt P63172 1-113)”, the binding [1] was “binds”.
With “endogenous Tctex-1 of keratinocytes (from UniProt P63172 1-113)” the binding [3] was “binds”, the binding [4] was “binds” and the binding [5] was “no binding”. The binding [6] was “binds”, the binding [7] was “binds” and the binding [8] was “binds”.
Myr-Tctex-1 (from UniProt P63172 1-113) was tested, and the binding [9] was “binds” and the binding [10] was “binds”.
